# Laboratory results taken from PubChem BioAssay AID588855 (National Center for Advancing Translational Sciences (NCATS), 2011).
# Screen size: about 410,000 compounds; about 5,000 (1.2%) were called active. This list was built around the results that the source calls inconclusive (neither active nor inactive); the mix of calls is not that of the screen. The call rests on the fitted dose curve; in most records, active means well fitted inhibition curve with a large enough effect; inconclusive means small, poorly fitted or top-dose-only effect; inactive means no such curve, though single readings can be large or run the other way. Potencies of inconclusive entries are doubtful fits and often do not repeat.
# Experiment: qHTS for Inhibitors of TGF-b; further: nearly all actives have a fitted effect of over 65% in size
# Details: HepG2 CAGA-GFP TGF-b/SMAD3 reporter, GFP fluorescence, 18 h, TGF-beta stimulated, 500 pg/mL final; series mostly up to 46.1 µM; activity, negative = inhibition: at the top concentration
# Procedure, shortened: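 HEPG2 CAGA-GFP, 1000 cells/well; 2 h settle, 37 C; cpd via pin tool; TGF-b 500 pg/mL final; 18 h, 37 C; GFP imaging ex488/em500-530; %Activity normalised to -TGF-b and +DMSO controls; CRC fit, curve class.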
# On the % scale 0 is the no-effect control and ±100 the full control effect; potency means the concentration at half of the fitted maximal effect; tags describe the fitted curve by direction and shape.
Compound,"activity, negative = inhibition",Potency
COCCCN(Cc1cc(OC)c(OC)c(OC)c1)C(=S)Nc1cccc(SC)c1,inactive: -14.1%,–
NC(=NCCc1c[nH]c2ccccc12)NS(=O)(=O)c1ccc2ccccc2c1,–,"inconclusive: 35.5 µM [inhibitor, partial curve, poor fit]"
CCOC(=O)[C@@H]1[C@H]2COc3ccc(Br)cc3[C@H]2N2C(=O)N(c3ccc(C)cc3)C(=O)[C@@]12C,–,"inconclusive: 35.5 µM [inhibitor, single point]"
C1=C(CCNc2ncnc3c2[nH]c2ccccc23)CCCC1,–,active: 3.55 µM
N/C(=N/O)c1nc(N2CCCC2)nc(N(c2ccccc2)c2ccccc2)n1,inactive: 0%,–
COc1ccc(S(=O)(=O)N2CCOC2CNC(=O)C(=O)NCc2cccnc2)cc1C (stereo not given),inactive: -5.23%,–
Cc1nn(-c2nnc(NCc3ccccc3)nn2)c(C)c1Br,–,"inconclusive: 22.4 µM [inhibitor, partial curve, poor fit]"
C/C(Cc1ccccc1)=N\NC(=O)CNC(=O)c1ccccc1Cl,–,"inconclusive: 5.62 µM [inhibitor, single point]"
Cc1cccc(C(=O)Nc2nc(-c3nnn(-c4cc(C)ccc4C)c3C)ns2)c1,–,"inconclusive: 20 µM [inhibitor, partial curve, poor fit]"
CCCSC1=C(C#N)C(c2ccc(Cl)cc2Cl)CC(=O)N1 (stereo not given),–,"inconclusive: 35.5 µM [inhibitor, single point]"
CCOCCCN(CCC#N)S(=O)(=O)c1ccc(S(=O)(=O)N2CCCC2)cc1,inactive: 4.37%,–
O=C(OCc1cn([C@H]2CN(C(=O)C3CCCCC3)[C@@H](c3ccc(Cl)cc3)C[C@@H]2O)nn1)c1ccccc1,–,"inconclusive: 35.5 µM [inhibitor, single point]"
Cn1c(=O)c2c(nc(N3CCN(Cc4ccccc4)CC3)n2CC(=O)c2ccccc2)n(C)c1=O,–,"inconclusive: 1.78 µM [inhibitor, partial curve, poor fit]"
C=CCn1c(SCc2nc3scc(-c4ccccc4)c3c(=O)[nH]2)nnc1-c1ccccc1F,–,"inconclusive: 35.5 µM [inhibitor, single point]"
CN(c1ccccc1)S(=O)(=O)c1ccc(Cl)c(C(=O)NCCc2c[nH]c3ccccc23)c1,–,"inconclusive: 28.2 µM [inhibitor, single point]"
Cc1ccc(S(=O)(=O)N2CCOC23CCN(C(=O)c2ccccc2Br)CC3)cc1,inactive: -19.8%,–
Cc1cc(C)nc(NC(=O)c2ccc([N+](=O)[O-])o2)n1,–,"inconclusive: 35.5 µM [inhibitor, single point]"
CCOC(=O)c1c(C)[nH]c(C)c1S(=O)(=O)N(C)CC(=O)Nc1cccc(C(F)(F)F)c1,–,"inconclusive: 0.112 µM [inhibitor, full curve, poor fit]"
COc1cccc(NC(=S)NCc2ccc3c(c2)cc(C)n3C)c1,inactive: 5.39%,–
COc1ccccc1-c1cc(C(F)(F)F)nc(S(=O)(=O)CCCC(=O)Nc2ccc(F)cc2F)n1,–,active: 3.98 µM
O=C(Cn1c(=O)oc2ccccc21)N1CCN(S(=O)(=O)c2ccccc2)CC1,inactive: -1.37%,–
COc1ccc(-c2ccc(CCC(=O)O)n2-c2cc(Cl)ccc2O)cc1,–,"inconclusive: 17.8 µM [inhibitor, partial curve, poor fit]"

Compound,"activity, negative = inhibition",Potency
CN(C)CCNCCCNc1c2ccccc2nc2cccc([N+](=O)[O-])c12,inactive: -3.77%,–
CCC(Sc1nc(C)cc(C)n1)C(=O)NC1=NN=C(c2ccc(C)cc2)CS1 (stereo not given),–,"inconclusive: 35.5 µM [inhibitor, single point]"
Cc1ncc(CN2CCCC(C(=O)Nc3ccc(-c4cccc(F)c4)cc3)C2)n1C (stereo not given),–,"inconclusive: 35.5 µM [inhibitor, single point]"
CCOc1cc(/C=N/Nc2nc(-c3cccc(S(=O)(=O)N4CCCC4)c3)cs2)ccc1O,–,"inconclusive: 35.5 µM [inhibitor, single point]"
O=C(COC(=O)/C=C/c1ccccc1)NCCc1ccc(F)cc1,inactive: 3.94%,–
Cc1ccc(-c2nc(CS(=O)(=O)CC(=O)NC3CCCCC3C)c(C)o2)cc1 (stereo not given),–,"inconclusive: 14.1 µM [inhibitor, single point]"
CC(=O)Nc1nnc(S(=O)(=O)N2CCN(c3ccc([N+](=O)[O-])cc3Cl)CC2)s1,–,"inconclusive: 35.5 µM [inhibitor, single point]"
Cc1ccccc1C(=O)N1CCN(c2ccc(NC(=S)NC(=O)c3ccco3)cc2)CC1,–,"inconclusive: 14.1 µM [inhibitor, partial curve, poor fit]"
Cc1ccc(NC(=O)c2cc(=O)c3ccccc3o2)cc1S(=O)(=O)N1CCCCC1,inactive: 1.5%,–
Cc1ccc(-n2nc(C)c(C3(O)C(=O)N(C(C)C)c4ccccc43)c2N)cc1 (stereo not given),–,"inconclusive: 3.98 µM [inhibitor, single point]"
CC(OC(=O)CC(C)c1ccccc1)C(=O)Nc1ccc(Cl)cn1 (stereo not given),inactive: 0.0792%,–
Cc1ccc(C)c(N(C(=O)CNC(=O)c2ccco2)C(C(=O)NC2CCCCC2)c2cccnc2)c1 (stereo not given),–,"inconclusive: 5.62 µM [inhibitor, single point]"
C[C@H](CO)N1C[C@H](C)[C@@H](CN(C)C(=O)NC2CCCCC2)Oc2c(NC(=O)Cc3ccccc3)cccc2C1=O,–,"inconclusive: 35.5 µM [inhibitor, single point]"
COc1ccc(-c2csc(NC3OC(=O)c4c3ccc(OC)c4OC)n2)cc1OC (stereo not given),–,"inconclusive: 22.4 µM [inhibitor, partial curve, poor fit]"
O=C1C2C3C=CC(C3=C(c3ccccc3)c3ccccc3)C2C(=O)N1Cc1ccccc1 (stereo not given),–,"inconclusive: 0.794 µM [inhibitor, full curve, poor fit]"
O=C(Nc1nnc(SCc2ccc(Cl)cc2Cl)s1)C1COc2ccccc2O1 (stereo not given),–,"inconclusive: 25.1 µM [inhibitor, single point]"
Clc1ccc(CN2C3=NCCCN3c3ccccc32)cc1,inactive: 3.42%,–
CN(C)CCCn1c2c(c(SCC(=O)Nc3nccs3)nc1=O)CCC2,inactive: 3.67%,–
Cc1nc(-c2ccccc2)cc(=O)[nH]1,–,"inconclusive: 2.51 µM [inhibitor, partial curve, poor fit]"
COc1ccc(-n2c(SCC(=O)Nc3ccccc3)nc(O)cc2=O)cc1,–,"inconclusive: 6.31 µM [inhibitor, full curve, poor fit]"
NS(=O)(=O)c1ccc(NC(=S)Nc2ccn(Cc3cccc4ccccc34)n2)cc1,–,active: 12.6 µM
O=C(Cn1nnc(-c2ccc(F)cc2)n1)Nc1cccc(S(=O)(=O)N2CCCC2)c1,–,"inconclusive: 35.5 µM [inhibitor, single point]"

Compound,"activity, negative = inhibition",Potency
C/C(CCC(C)C)=N\NC(=S)Nc1cc(S(=O)(=O)N2CCOCC2)ccc1N1CCOCC1,–,"inconclusive: 11.2 µM [inhibitor, single point]"
CCOc1ccc(Br)cc1S(=O)(=O)NC1CC(C)(C)NC(C)(C)C1,inactive: 21.5%,–
COc1ccccc1N(CC(O)COc1ccc(C)cc1)S(=O)(=O)c1ccccc1 (stereo not given),–,"inconclusive: 28.2 µM [inhibitor, single point]"
CCN(c1ccc(OC)cc1)S(=O)(=O)N1CCCC(C(=O)NCc2ccccc2Br)C1 (stereo not given),–,"inconclusive: 22.4 µM [inhibitor, single point]"
CC1Cc2ccccc2N1C(=O)CCS(=O)(=O)c1cccs1 (stereo not given),inactive: -17%,–
COc1ccc(COc2cc(-c3cccc(OC)c3)nc3ccc(NC(=O)c4ccc(OC)cc4)cc23)cc1,–,"inconclusive: 31.6 µM [inhibitor, partial curve, poor fit]"
CC(=O)Nc1ccc(S(=O)(=O)NC2(C(F)(F)F)C(=O)Nc3c2c(=O)[nH]c(=O)n3Cc2cccnc2)cc1 (stereo not given),inactive: 19.9%,–
Cc1ccc(-c2onc(C)c2C)cc1S(=O)(=O)N1CCOc2ccccc21,–,"inconclusive: 12.6 µM [inhibitor, single point]"
Cc1cc(N2CCC(C(=O)NCCC(C)C)CC2)n2nc(C)c(-c3ccc(Cl)cc3)c2n1,inactive: -9.5%,–
Cc1nc(CCNC(=O)c2cc(COc3ccc(F)cc3Cl)on2)sc1C,–,"inconclusive: 35.5 µM [inhibitor, single point]"
CC(C)(C)n1ncc2c(=O)n(Cc3ccccc3C(F)(F)F)cnc21,inactive: 6.15%,–
Cc1ccc(-c2nc3c4ccccc4n(CC(=O)N4CCN(c5ccc(F)cc5)CC4)c(=O)n3n2)cc1,inactive: 10.1%,–
COc1ccc(CCN2CC(C(=O)NCc3cnn(C)c3)CCC2=O)cc1 (stereo not given),inactive: 0.535%,–
CC(C)(C)C1CCC2(CC1)C(Nc1cccc(C(F)(F)F)c1)=NC(=S)N2CC#N (stereo not given),–,"inconclusive: 15.8 µM [inhibitor, single point]"
COc1cccc(CNC(=O)c2nnn(CC(=O)Nc3ccc(Br)cc3)c2N)c1,–,"inconclusive: 2.51 µM [inhibitor, full curve, poor fit]"
Cc1cc(C)cc(Nc2cc(C)nc3nc(-c4ccco4)nn23)c1,–,"inconclusive: 35.5 µM [inhibitor, single point]"
O=P(c1ccccc1)(c1ccccc1)C(O)c1cccs1 (stereo not given),inactive: -6.5%,–
Cc1noc(C)c1S(=O)(=O)Nc1ccc2c(c1)C(=O)N([C@@H](C)CO)C[C@H](C)[C@@H](CN(C)Cc1ccc(C(F)(F)F)cc1)OCCCC[C@H](C)O2,–,active: 10 µM
CC(=O)N1CCN(c2nc(-c3ccco3)c3c(c2C#N)CC(C)(C)SC3)CC1,–,"inconclusive: 5.62 µM [inhibitor, single point]"
Cc1ccc(N2C(=O)CC(NNc3nc4ccccc4s3)C2=O)cc1 (stereo not given),–,"inconclusive: 0.199 µM [inhibitor, full curve, poor fit]"
Cc1sc2nc(CN(C(=O)c3cccs3)C3CCCC3)[nH]c(=O)c2c1C,inactive: -17.6%,–
